Results on one molecule are retold here after article PMC7731665 (Frontiers in Immunology, 2020).

The assay deals with T1, vimentin in lupus nephritis kidney tissue (Homo sapiens, UniProt P08670).
T1 construct: endogenous vimentin of human lupus nephritis biopsies; vimentin-rich zones marked with the anti-vimentin antibody V9; also called Vim^hi zones of inflamed lupus kidney; source: endogenous, paraffin embedded human lupus kidney biopsies
Kind of assay: immunostaining of cells or tissue; paraffin embedded lupus nephritis kidney biopsies, FLAG-tagged human IgG1 mAbs detected with rat anti-FLAG and Alexa Fluor 488 anti-rat IgG, co-stained with V9 and Hoechst; confocal microscopy, per field of view. Conditions: one partner purified.

T1 sequence (P08670 whole entry): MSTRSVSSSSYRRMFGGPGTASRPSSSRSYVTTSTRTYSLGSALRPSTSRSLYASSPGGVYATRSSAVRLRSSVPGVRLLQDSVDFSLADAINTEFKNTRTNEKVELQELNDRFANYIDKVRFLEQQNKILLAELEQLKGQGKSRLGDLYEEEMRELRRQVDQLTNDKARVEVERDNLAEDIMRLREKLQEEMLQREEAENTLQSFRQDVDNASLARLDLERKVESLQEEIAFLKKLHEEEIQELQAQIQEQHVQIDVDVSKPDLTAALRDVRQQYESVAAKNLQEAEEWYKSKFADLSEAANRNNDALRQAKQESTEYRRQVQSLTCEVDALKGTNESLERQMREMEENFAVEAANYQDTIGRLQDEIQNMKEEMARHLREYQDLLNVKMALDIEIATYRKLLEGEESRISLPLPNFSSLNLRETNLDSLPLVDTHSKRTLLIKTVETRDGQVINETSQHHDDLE

B1: FLAG-tagged PB5rev (antibody, V domains shown)
VH: QVQLVESGGGVVQPGRSLRLSCAASGFTFSSYAMHWVRQAPGKGLEWVAVISYDGSNKYYADSVKGRFTISRDNSKNTLYLQMNSLRAEDTAVYYCARERRGNSDYFDYWGQGTLVTVSS
VL: EIVMTQSPATLSVSPGERATLSCRASQSVSSNLAWYQQKPGQAPRLLIYGASTRATGIPARFSGSGSGTEFTLTISSLQSEDFAVYYCQQYNNWPPMYTFGQGTKLEIK
notes: as the heavy chain of m10; as the light chain of m10; also called PB5rev (FLAG); source: heavy chain vector FJ475055 with FLAG co-expressed with the light chain plasmid, purified with protein A; not shown: FLAG, C-terminal, kept
Turning to B1, the binding result is “binds”.
